The source of these data is a collection of fitness landscapes (doi:10.1126/science.1257360).

The labels stand for the following.
B1: PhoQ; a variant is named by its letters at X, in order, P23837 (parent)
chain: MKKLLRLFFPLSLRVRFLLATAAVVLVLSLAYGMVALIGYSVSFDKTTFRLLRGESNLFYTLAKWENNKLHVELPENIDKQSPTMTLIYDENGQLLWAQRDVPWLMKMIQPDWLKSNGFHEIEADVNDTSLLLSGDHSIQQQLQEVREDDDDAEMTHSVAVNVYPATSRMPKLTIVVVDTIPVELKSSYMVWSWFIYVLSANLLLVIPLLWVAAWWSLRPIEALAKEVRELEEHNRELLNPATTRELTSLVRNLNRLLKSERERYDKYRTTLTDLTHSLKTPLXXLQXXLRSLRSEKMSVSDAEPVMLEQISRISQQIGYYLHRASMRGGTLLSRELHPVAPLLDNLTSALNKVYQRKGVNISLDISPEISFVGEQNDFVEVMGNVLDNACKYCLEFVEISARQTDEHLYIVVEDDGPGIPLSKREVIFDRGQRVDTLRPGQGVGLAVAREITEQYEGKIVAGESMLGGARMEVIFGRQHSAPKDE

Some of the results follow. Bounds are passed on as bounds.

This assay covers variants of B1. Nature of the assay: enrichment ratio after two sorts for PhoP signalling (ratio (wild type AVST 3.29)); higher = more functional. The note with it: with PhoP (E. coli).
In the case of NMDC, the enrichment ratio was not above 0.25.

KYVL: the enrichment ratio is not above 0.25.

Turning to VMQD, the enrichment ratio is not above 0.25. Next, SPHL: not above 0.25; HRYM: not above 0.25; PDAH: not above 0.25. As for SNDE, the enrichment ratio was not above 0.25. Consider EYFM, for which the enrichment ratio was not above 0.25.

EFKP: the enrichment ratio was not above 0.25. For LHHH, the enrichment ratio was not above 0.25. Next, FDPV: not above 0.25; LRYS: not above 0.25. For the variant VYLQ, the enrichment ratio was not above 0.25. Take LNKK: the enrichment ratio is not above 0.25. For the variant FGGW, the enrichment ratio is not above 0.25. Next, DGHW: not above 0.25.

In the case of CLMI, the enrichment ratio is not above 0.25. On to RPII, for which the enrichment ratio is not above 0.25.

For LKHH, the enrichment ratio was not above 0.25.

With QYYM, the enrichment ratio is not above 0.25. Next, FFWQ: not above 0.25; EICT: not above 0.25; MTID: not above 0.25. On to RDTD, for which the enrichment ratio was not above 0.25. With IKVQ the figure was not above 0.25; with VTNP, 0.491. With ICIC the figure was not above 0.25; with SLRP, not above 0.25. With PYDA the figure was not above 0.25; with NHGW, not above 0.25; with PLIA, not above 0.25. Regarding SVRW, the enrichment ratio is not above 0.25. In the case of ETAW, the enrichment ratio was not above 0.25.

As to IPEM, the enrichment ratio is not above 0.25.

With KNTD, the enrichment ratio was not above 0.25. As for IIWL, the enrichment ratio is not above 0.25. Next, PMRW: not above 0.25; LWGI: not above 0.25; TVHK: not above 0.25. Turning to EPFN, the enrichment ratio is not above 0.25. For the variant MNHW, the enrichment ratio is not above 0.25. With RVML the figure was not above 0.25; with RKWW, not above 0.25; with WSDD, not above 0.25.

Turning to DNRH, the enrichment ratio was not above 0.25. With QTLN the figure was not above 0.25; with IRFF, 0.314. With FYWY the figure was not above 0.25; with YITD, not above 0.25.

In the case of MSVV, the enrichment ratio stood at 3.96.

As to MVLD, the enrichment ratio is not above 0.25. For GHFL, the enrichment ratio was not above 0.25. As to RWRG, the enrichment ratio is not above 0.25.

For the variant SCYT, the enrichment ratio is 0.513. With LPHR the figure was not above 0.25; with PRRN, not above 0.25. With YWAD the figure was not above 0.25. Turning to IQTN, the enrichment ratio is not above 0.25. On to YMCY, for which the enrichment ratio is not above 0.25. In the case of MTYV, the enrichment ratio was 6.07. With TLPE the figure was not above 0.25; with RCDV, not above 0.25.

Regarding WSMH, the enrichment ratio was not above 0.25. Next, YEEV: not above 0.25; ANDY: not above 0.25; KCAA: not above 0.25.

For MLCM, the enrichment ratio was 6.08. With NSWT the figure was not above 0.25. With SRLQ the figure was 0.442; with HISI, not above 0.25; with KCNE, not above 0.25. With FIHI, the enrichment ratio is not above 0.25. Next, HSWM: not above 0.25. With HVMH the figure was not above 0.25.

For TINH, the enrichment ratio turned out to be 34.4.

In the case of MKFS, the enrichment ratio is not above 0.25. With RNSH the figure was not above 0.25; with LMRM, not above 0.25; with VHNI, not above 0.25. Next, DWTP: not above 0.25; EVKY: not above 0.25.

In the case of MFGR, the enrichment ratio was not above 0.25. Next, QAGT: 2.53; KDYG: not above 0.25.

For GWDR, the enrichment ratio was not above 0.25. With GETC the figure was 3.51; with TAQF, 14; with MSNA, not above 0.25. Regarding YTAS, the enrichment ratio is not above 0.25.

In the case of RINP, the enrichment ratio was not above 0.25. For the variant MCRW, the enrichment ratio was not above 0.25. Next, EEEV: not above 0.25; DYMP: not above 0.25; SKSS: 2.49.

Consider KHML, for which the enrichment ratio is not above 0.25. For the variant GTQL, the enrichment ratio is not above 0.25. Next, LDFP: not above 0.25; RTSA: not above 0.25. Next, HTST: not above 0.25; PSMS: not above 0.25. Take HCPC: the enrichment ratio is not above 0.25. Next, LFWS: not above 0.25.

Consider PFSP, for which the enrichment ratio is not above 0.25. Next, VRLM: not above 0.25; YCQV: not above 0.25; GCGI: not above 0.25. With FNAK the figure was not above 0.25; with VYYG, not above 0.25. Turning to PRCG, the enrichment ratio is not above 0.25. LKGV: the enrichment ratio is not above 0.25. As to HHGL, the enrichment ratio is 1.38. As for KYYI, the enrichment ratio is not above 0.25. Turning to IPNE, the enrichment ratio was not above 0.25. Take FQLH: the enrichment ratio is 4.07.

For the variant PFRY, the enrichment ratio is not above 0.25.

For the variant WFLR, the enrichment ratio was not above 0.25. With SCTA the figure was 12.7. DWHY: the enrichment ratio is not above 0.25. As for SSRH, the enrichment ratio is not above 0.25. On to HNDF, for which the enrichment ratio was not above 0.25. Consider KMLV, for which the enrichment ratio was not above 0.25.

Turning to YSIK, the enrichment ratio is not above 0.25. With NKYL the figure was not above 0.25; with EPPD, not above 0.25. In the case of ENNQ, the enrichment ratio is not above 0.25. With VFHR, the enrichment ratio was not above 0.25. Regarding FIMC, the enrichment ratio is not above 0.25.

Regarding MPKP, the enrichment ratio was not above 0.25. Regarding DARC, the enrichment ratio was not above 0.25. On to TIPH, for which the enrichment ratio was not above 0.25. Regarding RNHV, the enrichment ratio was not above 0.25.

As for QVFN, the enrichment ratio was not above 0.25. Turning to TTLK, the enrichment ratio amounted to 5.12.

TRRW: the enrichment ratio was not above 0.25. Next, WRHP: not above 0.25; ANYE: not above 0.25. As for YKHN, the enrichment ratio is not above 0.25.

In the case of SPPS, the enrichment ratio was not above 0.25. As to GICW, the enrichment ratio was determined as 3.95. For TRWQ, the enrichment ratio was not above 0.25. As for VHQR, the enrichment ratio was not above 0.25. With CCAN the figure was not above 0.25; with WYMH, not above 0.25; with TDNG, 4.17.

Regarding VEMG, the enrichment ratio was 6.39. For RQIM, the enrichment ratio was not above 0.25. Next, EEFI: not above 0.25.

For the variant TDEA, the enrichment ratio is not above 0.25. Next, IRQG: not above 0.25; EVID: not above 0.25; MTRH: not above 0.25.

YPEN: the enrichment ratio was not above 0.25. Take TTHA: the enrichment ratio was 2.81.

Regarding PPMM, the enrichment ratio was not above 0.25. With KRNH the figure was not above 0.25; with PLDQ, not above 0.25. On to GRVY, for which the enrichment ratio was not above 0.25. In the case of DVCA, the enrichment ratio was not above 0.25.

In the case of PYKT, the enrichment ratio was not above 0.25. Next, WMNG: not above 0.25. Consider DTCR, for which the enrichment ratio was not above 0.25. With AHAR the figure was not above 0.25. With AKHW the figure was not above 0.25; with LCRH, not above 0.25. Consider MIRD, for which the enrichment ratio is not above 0.25. With LGCK the figure was not above 0.25; with HVPR, not above 0.25. With LQPG, the enrichment ratio is not above 0.25. Next, QIMG: not above 0.25; MKAP: not above 0.25; VMIV: not above 0.25.

Regarding YDHN, the enrichment ratio is not above 0.25.

For PWAF, the enrichment ratio is not above 0.25.

In the case of VMSD, the enrichment ratio is not above 0.25. Next, YDFT: not above 0.25; KCRP: not above 0.25. In the case of KYIK, the enrichment ratio was not above 0.25.

With TEPK, the enrichment ratio is not above 0.25. Turning to GTRT, the enrichment ratio was not above 0.25. With LYDP the figure was not above 0.25; with SMDV, not above 0.25.

Turning to PRES, the enrichment ratio was not above 0.25. With VRTV the figure was not above 0.25. Regarding SHMF, the enrichment ratio came to 8.93.

Take RCPP: the enrichment ratio was not above 0.25. Next, MFYC: not above 0.25; VYSR: not above 0.25. With KAMN the figure was not above 0.25; with HQFA, not above 0.25; with HTDI, not above 0.25.

For MCTL, the enrichment ratio was 10.9.

In the case of AVAS, the enrichment ratio is 4.33. For the variant VFAL, the enrichment ratio was not above 0.25. As for YMWE, the enrichment ratio was not above 0.25.

Turning to HIWI, the enrichment ratio was not above 0.25.
